Test results published in PubChem BioAssay AID1745853 (National Center for Advancing Translational Sciences (NCATS), 2022).
This is one part of the list. Shown are side measurements of this screen, not its main read-out; they come without a call.

Assays:
Assay in all cases: Primary Screen for Target Class Profiling of Small Molecule Inhibitors of Methyltransferases
[1] = target: Glycine N-methyltransferase (Homo sapiens) (UniProt Q14749); settings: purified enzyme, MTase-Glo SAH luminescence; measured here: GNMT inhibition; at 40 µM; stronger effect = lower value
Outline: (§1)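 Each enzyme was assayed with SAM and its substrate. SAH formation detected by MTase-Glo luminescence; single-point 40 uM screen[…].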

[2] = target: Guanidinoacetate N-methyltransferase (Homo sapiens) (UniProt Q14353); settings: purified enzyme, MTase-Glo SAH luminescence; measured here: GAMT inhibition; at 40 µM; stronger effect = lower value
Outline: as §1

[3] = target: Histamine N-methyltransferase (Homo sapiens) (UniProt P50135); settings: purified enzyme, MTase-Glo SAH luminescence; measured here: HNMT inhibition; at 40 µM; stronger effect = lower value
Outline: as §1

[4] = target: Nicotinamide N-methyltransferase (Homo sapiens) (UniProt P40261); settings: purified enzyme, MTase-Glo SAH luminescence; measured here: NNMT inhibition; at 40 µM; stronger effect = lower value
Outline: as §1

[5] = target: Phenylethanolamine N-methyltransferase (Homo sapiens) (UniProt P11086); settings: purified enzyme, MTase-Glo SAH luminescence; measured here: PNMT inhibition; at 40 µM; stronger effect = lower value
Outline: as §1
% is set by controls: 0 for no effect and ±100 for the full control effect.

| SMILES | activity change, negative = inhibition [1] [%] | activity change, negative = inhibition [2] [%] | activity change, negative = inhibition [3] [%] | activity change, negative = inhibition [4] [%] | activity change, negative = inhibition [5] [%] |
| --- | --- | --- | --- | --- | --- |
| COc1ccccc1NC(=O)CSc1nnc2n(CC(C)C)c(=O)c3cc(F)ccc3n12 | -2.37 | 3.93 | 6.76 | -9.44 | -0.642 |
| COC(=O)c1cc2n(n1)CC(C)(C(=O)NC1CCCC1)N(c1ccc(OC)cc1)C2=O (stereo not given) | 1.44 | 2.93 | 9.91 | 2.67 | 2.31 |
| CCOC(=O)c1cc2n(n1)CC(C)(C(=O)NCCC(C)C)N(c1ccc(C)cc1C)C2=O (stereo not given) | 3.11 | 2.12 | 4.95 | 12.4 | 1.78 |
| CC(C)OCCCn1c(=O)c2ccccc2n2c(CCC(=O)N3CCN(c4ccccc4F)CC3)nnc12 | -10.4 | 2.61 | -1.42 | -14.2 | -2.31 |
| CN1C(=O)c2cc(C(=O)NC3CCN(Cc4ccccc4)CC3)nn2CC1(C)C(=O)NCc1ccc(F)cc1 (stereo not given) | 3.8 | 1.44 | -6.29 | 3.96 | -1.05 |
| CCc1ccc(N2C(=O)c3cc4sccc4n3CC2(C)C(=O)NC2CCCC(C)C2C)cc1 (stereo not given) | -4.36 | 0 | 3.17 | 4.13 | 0.39 |
| Nc1ccc(-c2ccc3ncc4ccc(=O)n(-c5cccc(C(F)(F)F)c5)c4c3c2)cn1 | -31.5 | -7.65 | -14.6 | -67.4 | -11.2 |
| CCCCn1c(=O)n(Cc2ccccc2F)c(=O)c2[nH]c(Cc3ccc(NC(C)=O)cc3)nc21 | 2.92 | 7.84 | 5.91 | -40 | -1.4 |
| Oc1cccc(C2NC(=S)Nc3cccc(F)c32)c1 (stereo not given) | -6.78 | 13 | -0.064 | -13.8 | -15.3 |
| CC(C)Cn1c(=O)c2ccccc2n2c(SCC(=O)N3CCN(c4ccccc4F)CC3)nnc12 | -1.72 | 4.28 | 3 | 1.69 | 1.33 |
| COc1cccc(CSc2nnc3n(CCC(C)C)c(=O)c4ccccc4n23)c1 | -5.18 | 0 | 1.41 | -12.1 | 3.53 |
| CCC(=O)c1ccc2c(c1)N(CCCN(C)C)c1ccccc1S2 | -0.103 | 8.22 | -5.71 | -32.9 | -1.21 |
| O=C(CCc1nnc2n(Cc3ccc(Cl)cc3)c(=O)c3ccccc3n12)N1CCC(Cc2ccccc2)CC1 | -5.27 | 1.43 | 4.17 | 5.75 | -0.035 |
| O=c1cc(-c2cccnc2)oc2c(NCc3ccc(F)cc3)nccc12 | -16.5 | -8.04 | -5.86 | -26.2 | -27 |
| COc1c2cc(c(O[C@@H]3O[C@H](CO)[C@@H](O)[C@H](O)[C@H]3O)c1OC)CCCCC(O)CCc1ccc(O)c-2c1 (stereo not given in full) | -36.4 | -17.9 | -22.6 | -29.2 | -8.16 |
| CC1CCC(NC(=O)CCn2ccc3cc(S(=O)(=O)N4CCCCC4)ccc32)CC1 (stereo not given) | 5.34 | 2.48 | 6.9 | 4.09 | 3.19 |
| CC(C)CCn1c(=O)c2ccc(C(=O)NC(C)C)cc2n2c(=O)n(Cc3ccccc3Cl)nc12 | 5.07 | 0 | 5.44 | 3.67 | 1.48 |
| Cc1nc2ccccn2c(=O)c1CCN1CCC(C(=O)c2ccc(F)cc2)CC1 | 3.73 | 11 | 5.31 | -3.04 | 7.58 |
| CC(C)(C)c1cc(Br)cc([C@H](CC(=O)O)NC(=O)CNC(=O)c2cc(O)cc(NC3=NCC(O)CN3)c2)c1 (stereo not given in full) | 2.06 | -4.09 | -9.3 | -17.3 | -8.51 |

| SMILES | activity change, negative = inhibition [1] [%] | activity change, negative = inhibition [2] [%] | activity change, negative = inhibition [3] [%] | activity change, negative = inhibition [4] [%] | activity change, negative = inhibition [5] [%] |
| --- | --- | --- | --- | --- | --- |
| O=C1NC2(Cc3ccccc31)CN(C(=O)c1ccccc1Cl)C2 | -8.66 | -8.94 | -3.59 | -18.5 | -26.8 |
| O=C(CCc1nnc2n(Cc3ccc(F)cc3)c(=O)c3ccccc3n12)N1CCOCC1 | -8.82 | 4.21 | 0.78 | 2.34 | -2.09 |
| COc1ccccc1CNC(=O)c1cc2n(n1)CC(C)(C(=O)NC1CCCC1)N(C)C2=O (stereo not given) | 5.25 | 0 | 1.2 | 3.11 | 1.23 |
| CCCc1nnc([C@H]2CCN(C(=O)c3ccccc3)C2)o1 | -7.37 | -13 | -3.97 | -19.3 | -15.9 |
| CCOC(=O)c1cc2n(n1)CC(C)(C(=O)NCc1ccc(F)cc1)N(c1ccc(F)cc1)C2=O (stereo not given) | 1.15 | 1.44 | 3.62 | 0.575 | -2.42 |
| O=c1n(CCCN2CCN(c3cccc(Cl)c3)CC2)nc2ccccn12 | 2.89 | 14.1 | 4.76 | -4.72 | 11.2 |
| Cc1ccc(S(=O)(=O)c2nnn3c2nc(NC(C)C)c2ccccc23)cc1 | -4.53 | 4.61 | 2.52 | 0.459 | -7.53 |
| COCCN1C(=O)c2cc(-c3ccccc3)nn2CC1(C)C(=O)NCc1ccccc1OC (stereo not given) | 3.79 | 1.01 | 4.49 | 7.65 | -0.788 |
| CCCCS(=O)(=O)N1C[C@@H](C(N)=O)[C@H](C2CCN(C)CC2)C1 | -0.952 | -0.032 | 0.633 | -1.85 | -0.525 |
| Cc1ccccc1C(C(=O)NC1CCCCC1)N(C(=O)Cn1ccnc1C)c1cccc(F)c1 (stereo not given) | 2.17 | 5.57 | 5.49 | -13.3 | -3.19 |
| Cc1ncc2n1C(=O)N(C1CCN(Cc3ccc(F)cc3)CC1)C2 | -4.47 | -1.29 | -3.88 | -3 | -1.3 |
| CC[C@H](C)/C=C(C)/C=C/C1=CC2=CC(=O)[C@]3(C)OC(=O)[C@@H](C(C)=O)[C@@H]3C2=CO1 | -3.02 | 3.13 | 0.76 | -12.7 | 3.19 |
| CC1(C(=O)NC2CCCCCC2)Cn2c(ccc2-c2ccccc2)C(=O)N1Cc1ccccc1 (stereo not given) | 1.37 | 0.658 | -1.62 | -6.89 | -2.62 |
| Cc1cn2cc(C(=O)N(C)CCO)cc(NC3CCOc4cccc(C)c43)c2n1 (stereo not given) | -8.52 | -7.66 | 0.044 | -21 | -4.01 |
| CC(C)NC(=O)c1nsc(C(=O)NCc2ccncc2)c1N | 14.6 | 1.53 | 12.6 | 5.3 | 6.04 |
| CC(=O)Nc1c2n(c3ccc(F)cc13)CC(C)(C(=O)NC1CCCC1)N(CCC(C)C)C2=O (stereo not given) | 4.64 | 0 | 6.04 | 9.34 | -0.025 |
| COc1ccccc1CNC(=O)C1(C)Cn2c(cc3ccccc32)C(=O)N1CCc1ccccc1 (stereo not given) | 4.13 | 0.738 | 6.24 | 9.79 | 1.99 |
| O=C(O)c1cc2c(s1)CCN(C(=O)c1ccc(F)cc1)C2 | 1.15 | -1.56 | 1.49 | 3.73 | 2.58 |
| CCC(C)C(=O)OC1CC(C)C=C2C=CC(C)C(CCC(O)CC(O)CC(=O)O)C21 (stereo not given) | 1.15 | 0.311 | 9.38 | -13.5 | -8.56 |
